One experiment deals with T1, human VEGFR3 (Human, UniProt P35916 25-776, limits assumed).
T1 construct: also called VEGFR3 Human
T1 sequence (looked up): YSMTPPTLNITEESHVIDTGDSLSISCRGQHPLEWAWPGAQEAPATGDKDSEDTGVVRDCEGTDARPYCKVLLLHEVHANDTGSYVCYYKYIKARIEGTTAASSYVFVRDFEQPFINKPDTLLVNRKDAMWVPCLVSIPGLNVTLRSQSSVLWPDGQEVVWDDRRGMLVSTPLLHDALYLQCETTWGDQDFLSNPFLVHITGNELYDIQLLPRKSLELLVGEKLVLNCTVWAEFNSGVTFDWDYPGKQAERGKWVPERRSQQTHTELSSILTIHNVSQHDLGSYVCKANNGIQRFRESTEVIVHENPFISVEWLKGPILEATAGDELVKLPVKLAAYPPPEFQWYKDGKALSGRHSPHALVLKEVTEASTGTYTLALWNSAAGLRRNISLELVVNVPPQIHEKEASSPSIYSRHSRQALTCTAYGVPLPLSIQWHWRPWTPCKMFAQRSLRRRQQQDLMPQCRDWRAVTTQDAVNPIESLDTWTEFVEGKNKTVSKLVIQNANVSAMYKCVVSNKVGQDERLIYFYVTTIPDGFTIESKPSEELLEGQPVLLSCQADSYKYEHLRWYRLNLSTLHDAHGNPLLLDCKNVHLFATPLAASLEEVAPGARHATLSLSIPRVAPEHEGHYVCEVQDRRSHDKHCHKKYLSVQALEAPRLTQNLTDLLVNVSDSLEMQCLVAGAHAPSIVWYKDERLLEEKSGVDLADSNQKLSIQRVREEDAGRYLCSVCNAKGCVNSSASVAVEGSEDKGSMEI
The experiment in a line: SPR (Biacore), 25 C. A general note: Surface plasmon resonance follows binding to a sensor surface in real time, without labels.

For a further experiment, the target named is T2, mouse VEGFR3 (Mouse, UniProt P35917 25-775, limits assumed).
T2 construct: also called VEGFR3 Mouse
T2 sequence (looked up): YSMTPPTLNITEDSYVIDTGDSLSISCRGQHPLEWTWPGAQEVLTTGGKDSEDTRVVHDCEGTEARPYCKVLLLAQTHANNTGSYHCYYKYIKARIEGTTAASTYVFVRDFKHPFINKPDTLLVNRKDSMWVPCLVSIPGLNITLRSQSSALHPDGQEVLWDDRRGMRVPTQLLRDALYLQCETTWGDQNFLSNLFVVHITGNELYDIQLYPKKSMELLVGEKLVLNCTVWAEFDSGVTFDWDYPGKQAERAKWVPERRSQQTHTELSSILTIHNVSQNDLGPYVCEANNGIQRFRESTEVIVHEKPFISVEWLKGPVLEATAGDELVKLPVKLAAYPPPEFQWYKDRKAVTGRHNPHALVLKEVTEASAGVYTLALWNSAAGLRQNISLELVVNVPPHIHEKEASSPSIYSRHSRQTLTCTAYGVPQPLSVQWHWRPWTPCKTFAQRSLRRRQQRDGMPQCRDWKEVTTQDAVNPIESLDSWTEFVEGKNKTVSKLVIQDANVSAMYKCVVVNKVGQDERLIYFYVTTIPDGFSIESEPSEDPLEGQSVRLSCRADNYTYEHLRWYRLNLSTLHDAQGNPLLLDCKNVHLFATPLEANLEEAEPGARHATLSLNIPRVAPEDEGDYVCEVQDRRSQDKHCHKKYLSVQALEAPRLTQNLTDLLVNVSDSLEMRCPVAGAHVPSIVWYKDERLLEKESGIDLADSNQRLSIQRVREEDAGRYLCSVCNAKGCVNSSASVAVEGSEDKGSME
The experiment in a line: SPR (Biacore), 25 C.

Another experiment concerns the target T3, mouse VEGFR1 (Mouse, UniProt P35969 23-759, limits assumed).
T3 construct: also called VEGFR1 Mouse
T3 sequence (looked up): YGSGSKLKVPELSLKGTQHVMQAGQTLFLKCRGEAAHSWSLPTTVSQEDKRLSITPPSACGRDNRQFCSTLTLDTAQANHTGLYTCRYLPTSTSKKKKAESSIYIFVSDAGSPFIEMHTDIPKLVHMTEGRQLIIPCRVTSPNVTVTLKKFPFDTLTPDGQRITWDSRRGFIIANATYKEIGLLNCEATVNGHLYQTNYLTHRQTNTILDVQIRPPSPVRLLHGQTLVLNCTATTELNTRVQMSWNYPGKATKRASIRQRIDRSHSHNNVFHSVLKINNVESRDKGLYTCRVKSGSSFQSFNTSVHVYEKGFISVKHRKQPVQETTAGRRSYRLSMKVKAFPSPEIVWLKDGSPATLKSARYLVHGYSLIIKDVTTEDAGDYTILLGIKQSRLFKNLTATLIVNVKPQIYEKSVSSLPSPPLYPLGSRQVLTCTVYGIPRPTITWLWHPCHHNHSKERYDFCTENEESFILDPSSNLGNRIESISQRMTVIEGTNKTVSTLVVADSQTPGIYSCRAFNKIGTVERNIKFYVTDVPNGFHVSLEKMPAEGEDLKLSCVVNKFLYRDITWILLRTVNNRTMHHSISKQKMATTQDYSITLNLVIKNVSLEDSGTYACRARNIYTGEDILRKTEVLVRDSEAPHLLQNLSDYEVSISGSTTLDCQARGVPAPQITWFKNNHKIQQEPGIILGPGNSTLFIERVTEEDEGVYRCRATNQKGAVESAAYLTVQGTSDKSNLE
The experiment in a line: SPR (Biacore), 25 C.

For a further experiment, the target named is T4, human VEGFR2 (Human, UniProt P35968 20-764, limits assumed).
T4 construct: also called VEGFR2 Human
The experiment in a line: SPR (Biacore), 25 C.

For the next experiment, the target named is T5, mouse VEGFR2 (Mouse, UniProt P35918 20-762, limits assumed).
T5 construct: also called VEGFR2 Mouse
The experiment is described as follows: SPR (Biacore), 25 C.

For experiment [1], the target named is T6, human VEGFR1 (SPR analyte/ligand) (human, UniProt P17948 27-758, limits assumed).
T6 construct: also called VEGFR1 Human; Flt-1
The experiment in a line: SPR (Biacore), 25 C, n=6.

Experiment [2] concerns the target T6, human VEGFR1 (SPR analyte/ligand). The experiment is described as follows: SPR (Biacore), 37 C, n=3.
Another experiment addresses T7, cynomolgus VEGFR1 (Cynomolgus, UniProt A0A2K5VAF2 27-758).
T7 construct: also called VEGFR1 Cynomolgus
The experiment is described as follows: SPR (Biacore), 37 C, n=3.

The target in experiment [3] is T8, hVEGFR1-Fc (R&D 321-fl 050/cf) (human, UniProt P17948 27-758).
T8 construct: Bought reagent; also called human sFlt1 (R&D 321-FL/CF); sFlt1; not shown: Fc portion of the bought fusion protein
The experiment is described as follows: competition ELISA, coated hVEGFR1-Fc, competitor biotinylated hPLGF1 2 nM (Table 4a experiment). (ELISA stands for enzyme-linked immunosorbent assay.)

Experiment [4] addresses T8, hVEGFR1-Fc (R&D 321-fl 050/cf). The experiment in a line: competition ELISA, coated hVEGFR1-Fc, competitor biotinylated hPLGF1 4 nM (Table 4b experiment).
The target is the same in experiment [5]. The experiment in a line: competition ELISA, coated hVEGFR1-Fc, competitor biotinylated hVEGFA-165 2 nM (Table 4a experiment).
For experiment [6] the target is unchanged. The experiment is described as follows: competition ELISA, coated hVEGFR1-Fc, competitor biotinylated hVEGFA-165 2 nM (Table 4b experiment).

Broadly, the Kd is a measure of binding affinity in units of concentration. Read a low Kd as a tighter complex. A word on the koff: it is the rate constant with which the complex falls apart. Low readings indicate a long-lived complex, high ones a short-lived complex. What is called IC50 is the midpoint of a concentration-inhibition curve. A lower IC50 goes with inhibition by little substance.

T8 sequence (P17948 27-758): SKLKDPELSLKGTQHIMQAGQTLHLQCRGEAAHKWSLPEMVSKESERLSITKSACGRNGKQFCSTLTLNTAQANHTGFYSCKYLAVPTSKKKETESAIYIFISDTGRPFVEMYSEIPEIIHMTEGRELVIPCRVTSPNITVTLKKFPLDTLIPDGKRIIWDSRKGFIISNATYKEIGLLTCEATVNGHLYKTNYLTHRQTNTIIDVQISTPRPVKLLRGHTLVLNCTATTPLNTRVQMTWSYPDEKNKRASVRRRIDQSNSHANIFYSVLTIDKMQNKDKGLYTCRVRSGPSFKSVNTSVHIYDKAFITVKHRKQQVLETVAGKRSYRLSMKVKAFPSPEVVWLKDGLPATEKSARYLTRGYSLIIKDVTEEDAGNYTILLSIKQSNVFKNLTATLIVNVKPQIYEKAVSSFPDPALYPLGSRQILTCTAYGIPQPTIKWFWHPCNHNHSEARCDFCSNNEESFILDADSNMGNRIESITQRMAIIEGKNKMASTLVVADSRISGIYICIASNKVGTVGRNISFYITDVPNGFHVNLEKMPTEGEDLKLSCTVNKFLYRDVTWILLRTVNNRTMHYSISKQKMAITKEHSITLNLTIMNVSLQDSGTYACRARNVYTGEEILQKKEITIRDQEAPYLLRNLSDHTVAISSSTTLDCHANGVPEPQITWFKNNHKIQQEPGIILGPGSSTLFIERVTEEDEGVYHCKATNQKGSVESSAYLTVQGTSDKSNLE
T6 sequence (P17948 27-758 limits assumed): as the sequence (P17948 27-758) above
Sequence of mouse VEGFR2 (P35918 20-762 limits assumed): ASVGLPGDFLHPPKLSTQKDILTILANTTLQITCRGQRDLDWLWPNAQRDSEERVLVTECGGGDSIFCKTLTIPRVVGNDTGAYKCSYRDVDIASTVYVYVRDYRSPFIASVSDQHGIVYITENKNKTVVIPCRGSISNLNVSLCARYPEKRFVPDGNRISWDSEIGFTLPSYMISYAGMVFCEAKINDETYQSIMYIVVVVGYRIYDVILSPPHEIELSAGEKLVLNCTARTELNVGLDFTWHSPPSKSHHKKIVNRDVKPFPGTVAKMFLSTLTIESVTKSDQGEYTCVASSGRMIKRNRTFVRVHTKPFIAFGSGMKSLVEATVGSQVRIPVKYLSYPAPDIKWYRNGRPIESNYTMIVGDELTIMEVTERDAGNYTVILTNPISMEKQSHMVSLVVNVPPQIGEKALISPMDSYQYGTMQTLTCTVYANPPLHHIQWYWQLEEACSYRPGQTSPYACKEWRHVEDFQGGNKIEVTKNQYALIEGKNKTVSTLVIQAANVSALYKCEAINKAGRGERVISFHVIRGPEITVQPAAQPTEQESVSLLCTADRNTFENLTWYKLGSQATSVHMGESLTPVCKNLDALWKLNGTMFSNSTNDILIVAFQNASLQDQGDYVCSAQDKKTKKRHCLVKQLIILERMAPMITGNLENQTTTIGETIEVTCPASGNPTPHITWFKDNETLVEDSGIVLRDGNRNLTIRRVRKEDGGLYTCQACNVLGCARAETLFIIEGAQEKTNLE
Sequence of human VEGFR2 (P35968 20-764 limits assumed): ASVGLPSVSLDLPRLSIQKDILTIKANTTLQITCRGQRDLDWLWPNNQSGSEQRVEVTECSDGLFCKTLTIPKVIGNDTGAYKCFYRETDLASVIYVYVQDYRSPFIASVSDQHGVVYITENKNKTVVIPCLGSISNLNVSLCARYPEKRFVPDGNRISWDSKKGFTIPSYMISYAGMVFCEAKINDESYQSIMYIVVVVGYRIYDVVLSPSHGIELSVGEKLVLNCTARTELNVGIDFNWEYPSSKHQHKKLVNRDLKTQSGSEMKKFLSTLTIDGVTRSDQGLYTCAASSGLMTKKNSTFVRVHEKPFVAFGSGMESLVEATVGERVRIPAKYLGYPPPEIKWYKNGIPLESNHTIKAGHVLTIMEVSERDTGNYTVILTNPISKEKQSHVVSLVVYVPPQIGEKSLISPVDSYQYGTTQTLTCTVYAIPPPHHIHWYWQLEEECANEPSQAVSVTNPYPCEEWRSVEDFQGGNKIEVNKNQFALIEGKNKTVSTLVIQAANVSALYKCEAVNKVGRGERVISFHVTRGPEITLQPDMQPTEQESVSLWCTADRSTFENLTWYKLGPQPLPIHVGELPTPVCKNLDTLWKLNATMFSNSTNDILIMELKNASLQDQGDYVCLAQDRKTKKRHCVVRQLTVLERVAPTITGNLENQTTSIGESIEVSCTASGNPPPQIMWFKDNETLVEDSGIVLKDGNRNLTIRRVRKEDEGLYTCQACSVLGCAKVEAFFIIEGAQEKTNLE

B1: Antibody II (antibody, human IgG4 S228P, kappa, F234A L235A)
heavy: QAQVVESGGGVVQSGRSLRLSCAASGFAFSSYGMHWVRQAPGKGLEWVAVIWYDGSNKYYADSVRGRFTISRDNSENTLYLQMNSLRAEDTAVYYCARDHYGSGVHHYFYYGLDVWGQGTTVTVSSASTKGPSVFPLAPCSRSTSESTAALGCLVKDYFPEPVTVSWNSGALTSGVHTFPAVLQSSGLYSLSSVVTVPSSSLGTKTYTCNVDHKPSNTKVDKRV[human IgG4 Fc with S228P F234A L235A (EU numbers) not shown]
light: [about 200 residues not shown]
notes: also called Ab II; Antibody 2
For the molecule B1, the binding result with human VEGFR3, with mouse VEGFR3, with mouse VEGFR1, with human VEGFR2 and with mouse VEGFR2 was “no binding (tested: ~200 nM)” throughout. The results for the Kd (in experiment [1]; in experiment [2]; with cynomolgus VEGFR1) were at most 0.042 nM, 0.74 nM and 0.554 nM, respectively. Further, the off-rate (koff) worked out at 1.42e-05 s⁻¹ in experiment [1], 0.00024 s⁻¹ in experiment [2] and 8.3e-05 s⁻¹ with cynomolgus VEGFR1. The IC50 was 0.43 nM in experiment [3], 0.31 nM in experiment [4], 0.14 nM in [5] and 1.02 nM in [6].

For the origin of these results see patent US20140271675A1 (Eli Lilly, published 2014).
